The results in this text go back to PubChem BioAssay AID1508623 (National Center for Advancing Translational Sciences (NCATS), 2021).

Screen size: about 48,000 compounds; about 450 (0.94%) were called active. Inconclusive results (about 19%) are left out. Calls follow the shape of the dose curve; as a rule, active = well fitted inhibition curve with a large enough effect; inconclusive = small, poorly fitted or top-dose-only effect; inactive = no such curve, though single readings can be large or run the other way. The list shows a part of the results.
Potency is read from the fitted curve at half-maximal effect.

This assay is described as follows: Primary qHTS for Identification of Small Molecule Inhibitors of Huntingtin Promoter Activity. Also: nearly all actives have a fitted effect of over 50% in size. The conditions noted are these: HEK293 HTT promoter firefly luciferase reporter (activity 0% = vehicle and -100% = no light), 24 h; series mostly up to 57.5 µM; activity change, negative = inhibition: at the top concentration. The essentials:
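Firefly luciferase readout (Dual-Glo, 10 min RT) after 24 h, 37 °C compound exposure (final up to 57.5 uM) of HEK293 reporter cells cultured 24 h beforehand; PTC124 at 50 uM final as control inhibitor; activity scaled vehicle 0%, zero RLU -100%.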
A general note: In qHTS, concentration-response curves come from the screen itself.
Take `Cc1ccc(C)c(CNC(=O)C2CCN(c3nc4ccccc4nc3C(F)(F)F)CC2)c1`: the “activity change, negative = inhibition” value was inactive: 23.5%. The same measure, in the same setting: the result for `CCOc1ccccc1CNC(=O)Cn1ncn2nc(-c3cccs3)cc2c1=O` reads inactive: -10.8%. Still for that read-out and setting: in the case of `COc1ccc(Nc2nnc(-c3cc4c(ccc5ccccc54)oc3=O)s2)cc1` it was inactive: 16.7%; in that of `CCNC(=O)c1ccc2nc(CCc3ccccc3)oc2c1`, inactive: 18.4%; in that of `CCCN(C(=O)c1cn(C)c(=O)c2ccccc12)c1ccccc1C`, inactive: -6.27%. For `CCOc1ccccc1C(=O)N(Cc1cc(OC)c(OC)c(OC)c1)C1CCS(=O)(=O)C1` (stereo unspecified), the “activity change, negative = inhibition” value is inactive: -8.3%.

As to `O=C(CN1CCSc2ccccc21)NCc1ccccc1F`, the “activity change, negative = inhibition” value was inactive: -6.5%. Same read-out and setting: the result for `COc1ccc2nc(N(Cc3cccnc3)C(=O)C3COc4ccccc4O3)sc2c1` (stereo unspecified) reads inactive: 5.86%; that for `CN(C)CC[C@@H](c1ccc(Br)cc1)c1ccccn1`, inactive: 1.02%. With `CCCOc1ccc(CN(C(=O)c2cc(=O)c3ccc(C)cc3o2)C2CCS(=O)(=O)C2)cc1` (stereo unspecified), the “activity change, negative = inhibition” value is inactive: -15.5%. The same measure, in the same setting: the result for `COc1ccc(N2CCN(S(=O)(=O)CCNC(=O)C3CC(=O)N(c4ccccc4)C3)CC2)cc1` (stereo unspecified) reads inactive: -8.92%.

Regarding `Cc1nc(CC(=O)Nc2cc(Cl)ccc2C)cs1`, the “activity change, negative = inhibition” value is inactive: -3.51%.

On to `COc1cccc(C(=O)CC2(O)C(=O)Nc3ccc(Cl)cc32)c1` (stereo unspecified), for which the “activity change, negative = inhibition” value is inactive: -19.3%. On the same count and under the same terms, in the case of `COc1cc(C)ccc1OCCSc1nc(-c2cccc(C)c2)nc2cc(=O)[nH]n12` it was inactive: -10.2%; in that of `COc1ccc(C)cc1NC(=O)COCc1cc(-c2cccs2)on1`, inactive: -15.2%. `CCOc1ccc(NC(=O)CSc2nc3c(c(=O)[nH]2)CCCC3)cc1`: the “activity change, negative = inhibition” value was inactive: -5.77%. On to `COc1cc(C2c3c(oc4ccc(F)cc4c3=O)C(=O)N2c2nc(C)c(C)s2)cc(OC)c1OC` (stereo unspecified), for which the “activity change, negative = inhibition” value is inactive: 2.42%. Still for that read-out and setting: in the case of `O=C(CCS(=O)(=O)c1cc(Br)cc2c1N(C(=O)C1CC1)CC2)N1CCN(c2ccc(F)cc2)CC1` it was inactive: -13.5%; in that of `CC1(C)[C@H](O[C@H]2O[C@H](C(=O)O)[C@@H](O)[C@H](O)[C@H]2O[C@@H]2O[C@H](C(=O)O)[C@@H](O)[C@H](O)[C@H]2O)CC[C@@]2(C)[C@H]1CC[C@]1(C)[C@H]2C(=O)C=C2[C@H]3C[C@@](C)(C(=O)O)CC[C@]3(C)CC[C@]21C`, inactive: -3.22%; in that of `COc1ccc(CCNC(=O)CCCn2c(=O)c3ccccc3n(Cc3ccc(C)cc3)c2=O)cc1OC`, inactive: -4.86%. On the same count and under the same terms, in the case of `Cc1ccc2ncc(C(=O)NCCc3ccc(S(N)(=O)=O)cc3)c(=O)n2c1` it was inactive: -0.892%.

For the compound `Cc1ccc(CCNC(=O)c2cc3c(=O)oc4ccccc4c3s2)cc1`, the “activity change, negative = inhibition” value is inactive: -3.74%. Still for that read-out and setting: in the case of `Cc1nn2c(C)c(C(=O)N3CCN(c4ccccc4)CC3)cnc2c1-c1ccccc1` it was inactive: -18.9%. In the case of `COc1ccccc1OCCn1c(COc2cc(C)ccc2C)nc2ccccc21`, the “activity change, negative = inhibition” value is inactive: 1.44%. On the same count and under the same terms, in the case of `COc1cccc(CNC(=O)CNS(=O)(=O)c2ccc3nc(C)sc3c2)c1` it was inactive: -3.9%; in that of `COc1cc(NC(=O)CSc2nc3ccccc3nc2Cc2ccccc2OC)cc(OC)c1`, inactive: -3.38%.

Regarding `O=C(c1ccc(Cl)cc1)N(Cc1ccco1)Cc1ccco1`, the “activity change, negative = inhibition” value is inactive: -21.9%. Still for that read-out and setting: in the case of `COc1cc(OC)cc(C(=O)Nc2ccc3oc(-c4ccccc4C)nc3c2)c1` it was inactive: 5.29%; in that of `CCC(=O)Nc1ccc(C)cc1-c1nc2ccccc2n(CC(=O)Nc2ccccc2Cl)c1=O`, inactive: -9.62%.

Consider `COc1ccc(NC(=O)Cn2c(=O)n(CC3CCCO3)c(=O)c3ccccc32)c(OC)c1` (stereo unspecified), for which the “activity change, negative = inhibition” value was inactive: -4.69%.

Turning to `CCN(CC)S(=O)(=O)c1nnc(NC(=O)c2ccccc2Cl)s1`, the “activity change, negative = inhibition” value was inactive: -3.24%. On to `CC(C)CNc1nc(NC(C)(C)C)nc(Oc2ccc(=O)n(-c3ccccc3)n2)n1`, for which the “activity change, negative = inhibition” value was inactive: -27.9%. Still for that read-out and setting: the result for `Cc1ccc(NC(=O)c2oc3ccc(S(=O)(=O)N4CCCCC4)cc3c2C)cc1C` reads inactive: -24.2%.

As for `COc1ccc2c(c1)c1c(c(=O)n(CCc3ccccc3)c(=O)n1Cc1ccccc1)n2C`, the “activity change, negative = inhibition” value is inactive: -9.96%.

Turning to `Cc1ccc(C)c2sc(NC(=O)c3ccc(S(=O)(=O)N4CCCC4)cc3)nc12`, the “activity change, negative = inhibition” value was inactive: -28.6%. `CCOc1ccc(CNC(=O)c2ccc3c(c2)nc2n3CCOC2)cc1`: the “activity change, negative = inhibition” value was inactive: 30.4%. On the same count and under the same terms, the result for `CC(=O)N1CCOc2cc(S(=O)(=O)NCc3ccc(C)cc3)c(C)cc21` reads inactive: -5.36%; that for `COc1ccc(N(C(=O)c2ccccc2F)S(=O)(=O)c2ccc3c(c2)n(C)c(=O)n3C)cc1`, inactive: 0%; that for `Cc1c(CNCc2ccc(OC(C)C)cc2)c(C(=O)O)c(C)n1Cc1ccc(Cl)cc1`, inactive: 17.9%. Take `CCN1CCN(CCCNC(=O)c2cc3c(=O)n(CC)c4ccccc4c3s2)CC1`: the “activity change, negative = inhibition” value was inactive: 7.09%. Same read-out and setting: the result for `COc1ccc(-c2cc(C(F)(F)F)nc(SCC(=O)N(C)Cc3ccccc3)n2)cc1OC` reads inactive: -20.3%; that for `COc1cc(O)ccc1C1CC(=O)Nc2c1c(=O)nc(SCc1ccccc1C)n2C` (stereo unspecified), inactive: -16.5%. As to `COc1ccc(CNc2oc(-c3ccc(COc4ccc(Cl)cc4)o3)nc2C#N)cc1`, the Potency is active: 22.4 µM.

`COc1ccc(CNC(=O)c2c(Nc3ccc(OC)cc3OC)sc(C(=O)c3ccc(Cl)cc3)c2N)cc1`: the “activity change, negative = inhibition” value was inactive: -29.8%. Still for that read-out and setting: in the case of `CCOC(=O)CSc1nc2sc3c(c2c(=O)n1Cc1ccccc1)CCC(C(C)(C)C)C3` (stereo unspecified) it was inactive: -11.7%; in that of `CC(C)OCCCNC(=O)CCCn1c(=O)[nH]c2ccsc2c1=O`, inactive: 0.175%.
